From PMC4336329 (PLoS ONE, 2015)
Hit rate of the full screen: of about 310,000 compounds, about 2,200 (0.71%) showed an effect of 50% or more. Effects have a minus sign here. The list shows a part of the results.

biological target: human ether-à-go-go-related gene (hERG) potassium channel (human, UniProt Q12809); assay: primary screen, population patch clamp on CHO cells stably expressing hERG
Sequence (Q12809 whole entry, looked up): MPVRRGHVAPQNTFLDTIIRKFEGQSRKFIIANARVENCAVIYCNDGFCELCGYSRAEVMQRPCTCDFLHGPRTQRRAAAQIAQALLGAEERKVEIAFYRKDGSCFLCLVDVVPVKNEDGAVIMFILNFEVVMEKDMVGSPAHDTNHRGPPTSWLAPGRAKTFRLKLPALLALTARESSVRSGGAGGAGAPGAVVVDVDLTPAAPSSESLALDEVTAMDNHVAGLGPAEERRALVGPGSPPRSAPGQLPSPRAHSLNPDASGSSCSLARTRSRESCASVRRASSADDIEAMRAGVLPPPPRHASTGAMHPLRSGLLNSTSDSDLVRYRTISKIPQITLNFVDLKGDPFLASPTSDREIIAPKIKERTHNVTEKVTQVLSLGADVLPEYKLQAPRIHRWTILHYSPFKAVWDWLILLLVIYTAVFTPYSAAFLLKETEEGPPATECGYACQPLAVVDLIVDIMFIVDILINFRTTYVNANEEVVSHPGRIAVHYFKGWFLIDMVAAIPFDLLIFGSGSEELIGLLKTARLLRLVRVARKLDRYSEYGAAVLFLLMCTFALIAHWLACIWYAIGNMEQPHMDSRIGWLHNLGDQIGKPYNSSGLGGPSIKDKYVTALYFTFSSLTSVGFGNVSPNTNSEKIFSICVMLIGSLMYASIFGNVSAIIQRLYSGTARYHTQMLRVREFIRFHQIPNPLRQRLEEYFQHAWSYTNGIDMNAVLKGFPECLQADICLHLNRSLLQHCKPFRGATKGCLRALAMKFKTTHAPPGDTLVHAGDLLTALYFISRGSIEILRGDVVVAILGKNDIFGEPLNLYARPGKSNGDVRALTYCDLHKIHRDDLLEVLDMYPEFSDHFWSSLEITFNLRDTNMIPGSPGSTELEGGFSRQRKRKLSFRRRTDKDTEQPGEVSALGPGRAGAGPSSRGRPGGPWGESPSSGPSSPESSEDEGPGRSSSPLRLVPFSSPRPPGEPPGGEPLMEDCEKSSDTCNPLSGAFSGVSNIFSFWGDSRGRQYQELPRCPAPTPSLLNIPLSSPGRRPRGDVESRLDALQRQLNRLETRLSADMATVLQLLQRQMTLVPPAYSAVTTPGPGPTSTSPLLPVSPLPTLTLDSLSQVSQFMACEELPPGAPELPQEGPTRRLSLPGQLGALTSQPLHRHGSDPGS

Compound	hERG current change (%, negative = inhibition) at 1uM
CCN(Cc1ccccc1)C(c1cc2cc(C)ccc2[nH]c1=O)c1nnnn1CCOC (stereo not drawn)	9.45%
COC(=O)c1ccnc(SCC(=O)c2ccccc2)c1	4.14%
CCN(CC)c1ccc(CNC23CN4CN(CN(C4)C2)C3)cc1	11.9%
COC(=O)C1C(c2ccc(OC)cc2)Nc2nnc(C(F)(F)F)n2C1(C)O (stereo not drawn)	10%
O=C(NC(Nc1cc(C(F)(F)F)ccc1Cl)C(=O)c1ccccc1)c1ccccc1 (stereo not drawn)	13.6%
CC(=O)Nc1ccn(-c2ccccc2)n1	11%
Cc1cccc(C)c1-n1c(C)nn(CC2CC2)c1=O	8.45%
CCc1nnc(NC(=O)CCCSc2nc3ccccc3[nH]2)s1	10.1%
COc1ccc2nc(NC(=O)Nc3ccccc3OC)sc2c1	11.4%
O=C(Nc1ccccn1)C1CCCN1S(=O)(=O)c1ccc(Cl)cc1 (stereo not drawn)	7.12%
CN(C)C(CNC(=O)CCc1c[nH]c2ccccc12)c1ccccc1 (stereo not drawn)	2.5%
COc1cccc(OCC(O)CN2CCC(C)CC2)c1.Cl (stereo not drawn)	3.42%
O=C(CCc1nc2ccccc2c(=O)[nH]1)N1CCN(S(=O)(=O)c2cccc([N+](=O)[O-])c2)CC1	10.7%
CN(C)c1ccc(NC(=O)c2cnsn2)cc1	20.3%
CN=C1S/C(=C\c2ccc(N3CCOCC3)c(F)c2)C(=O)N1C	14.3%
Cc1nnsc1-c1nnc(SCC(=O)c2ccc(C#N)cc2)n1C1CC1	6.93%
CCCCOc1ccccc1P(=O)(O)CP(=O)(c1ccccc1)c1ccccc1	11%
Clc1ccc(CNc2ccc(N3CCN(Cc4ccccc4)CC3)cc2)cc1	10.2%
O=C(COc1ccccc1)N/N=C/c1ccc2c(c1)OCO2	8.59%
CCC(=O)O[C@]1(C(=O)SCF)[C@H](C)C[C@H]2[C@@H]3C[C@H](F)C4=CC(=O)C=C[C@]4(C)[C@@]3(F)[C@@H](O)C[C@@]21C	1.93%
Cc1n[nH]c(C)c1Sc1ccccc1N=Cc1cc([N+](=O)[O-])ccc1O	-12%
CCn1nnnc1SCC(=O)Nc1cccc(C)n1	4.72%
O=C(/C=C/c1ccc(Cl)cc1)NCCc1ccccc1	0.359%

Compound	hERG current change (%, negative = inhibition) at 1uM
COc1cc(/C=C/C(=O)c2ccc(C)c([N+](=O)[O-])c2)cc(OC)c1O	6.91%
Cn1c(SCC(=O)O)nc2sc3c(c2c1=O)CCC3	20%
Cc1cc(C)c(NC(=S)N2CCCC2C(=O)O)c(C)c1 (stereo not drawn)	-3.18%
COCCn1c(SCC(=O)Nc2ccc(S(=O)(=O)N3CCOCC3)cc2)nc2ccccc21	-4.78%
O=C(COC(=O)C1CC(=O)N(Cc2ccccc2)C1)Nc1ccc(Cl)cc1F (stereo not drawn)	48.7%
Cc1ccc(C2(O)CN(c3ccccc3C)C3=[N+]2CCS3)cc1.[Br-] (stereo not drawn)	10.5%
CCOP(=O)(c1ccc(N(C)C)cc1)C(O)c1ccccc1F (stereo not drawn)	12.3%
Cc1ccc(C)c(NC(=O)C(C)N2C(=O)c3ccccc3C2=O)c1 (stereo not drawn)	10.8%
Cc1ccc(-c2nn(CCC(=O)NC(C)C)c(=O)c3ccccc23)cc1	20.7%
O=C(NCc1cccc(OC(F)(F)F)c1)C1CCC(=O)N(Cc2cccc(F)c2)C1 (stereo not drawn)	-17%
CNc1ccc2nc3ccccc3[n+](C)c2c1.[O-][Cl+3]([O-])([O-])[O-]	11.6%
CO/N=C(/C)CCS(=O)(=O)c1ccccc1	12.4%
O=C(NNS(=O)(=O)c1ccccc1)c1csc(-c2cccnc2)n1	9.51%
COc1ccc(C(C)NC(=O)c2ccccc2Cl)cc1OC (stereo not drawn)	4.44%
COc1cc(C(=S)N2CCOCC2)cc(OC)c1OC(=O)c1ccccc1[N+](=O)[O-]	14.5%
CC(C)C[C@H](NC(=O)c1nc[nH]c1C(=O)N1CCN(c2ccccc2)CC1)C(=O)OCc1ccccc1	9.97%
Cc1cc(O)c(C(C)C)cc1NC(=O)Cn1nc(C)c2ccccc2c1=O	-6.85%
CCOc1cc(/C=C2\NC(=S)N(C)C2=O)ccc1OCc1ccc(C(=O)O)cc1	6.12%
O=C(c1ccco1)N1N=C(C2CCCCC2)CC1(O)C(F)(F)F (stereo not drawn)	0.504%
O=C(Nc1ccc2c(c1)OCCO2)C1CCN(S(=O)(=O)c2ccccc2)CC1	13.1%
CCCc1cc(=O)oc2c(C)c(OCC(=O)Nc3ccc(CN4CCOCC4)cc3)ccc12	9.68%
O=C(NC1CCCCC1)c1ccc(CNc2c(N3CCOCC3)c(=O)c2=O)cc1	9.75%
Cc1cc(C)n(CCCN2C(=O)c3cccc4cccc(c34)C2=O)n1	7.6%

Compound	hERG current change (%, negative = inhibition) at 1uM
O=C1C2C(C(=O)N1/N=C/c1cccc([N+](=O)[O-])c1)C1C=CC2C12CC2 (stereo not drawn)	6.68%
Cc1onc(-c2ccccc2)c1C(=O)NC(C)C1CCCO1 (stereo not drawn)	4.69%
Fc1cccc(C[n+]2csc3ccccc32)c1.[Br-]	6.39%
COCCNC(=S)Nc1ccc2nc(N3CCCC3)cc(C)c2c1	-50.5%
CCCC[C@@H](CNC)NC[C@H](NCCCCC1CCCCC1)C(C)C	11.2%
COc1cccc(CNC(=O)c2cc3c(cc2Cl)N2CCCCCC2=NS3(=O)=O)c1	2.12%
N#Cc1c(-c2ccc(Br)cc2)cc(-c2cccnc2)nc1N	5.3%
CCc1nnc(NC(=O)CCN2C(=O)/C(=C/c3cc(OC)c(OC)c(OC)c3)SC2=S)s1	11.6%
O=C(CN1C(=O)NC2(CCCC2)C1=O)Nc1cccc(Cl)c1	9.16%
COc1ccc(Cc2c(O)nc(SCC(=O)N3CCCCCC3)[nH]c2=O)cc1	9.8%
O=C(COc1ccc(Cl)cc1)NCc1ccccc1	-3.37%
CC1(OC(=O)c2cccs2)C(=O)C=C2C=C(C3CC3)OC=C2C1=O (stereo not drawn)	13.7%
C=CCNC(=S)Nc1sc2c(c1C#N)CCCC2	10.6%
O=C(CSc1ccc(-c2cccnc2)nn1)Nc1ccc(F)c(F)c1	-0.104%
O=C(Nc1ccc([N+](=O)[O-])cc1)C1COc2ccccc2O1 (stereo not drawn)	7.07%
O=C(NCCc1ccccc1F)C1CCCN(c2nc3ccccc3s2)C1 (stereo not drawn)	9.71%
CCC(C)NCCCOc1ccc(C)cc1OC (stereo not drawn)	9.42%
CCOC(=O)C(NCCc1ccc(F)cc1)(NC(=O)CC)C(F)(F)F (stereo not drawn)	-0.198%
Cc1cc(C)cc(NC(=S)N(C)C)c1	4.19%
O=S(=O)(c1ccc2ccccc2c1)N1CCNCC1	11.7%
CC1CCCN(C(=O)COC(=O)c2ccc[nH]c2=O)C1 (stereo not drawn)	16.7%
CCCC(C(=O)NC1CCCC1)N(CCCN1CCOCC1)C(=O)c1snc(C(N)=O)c1N (stereo not drawn)	3.18%
CC(C)CC(=O)c1c[nH]c(C(=O)NCc2ccc(F)cc2)c1	6%

Compound	hERG current change (%, negative = inhibition) at 1uM
CC(=Nc1ccccc1)C1=C(O)CSC1=O	3.32%
NCc1ccccc1COc1ccccc1.O=C(O)/C=C\C(=O)O	4.75%
C[C@@H]1CCC[C@]2(O[C@@H](CCO)C[C@@H](O)[C@@H]2O)O1	14%
COc1ccc(S(=O)(=O)N[C@@H](C)C(=O)OCC(=O)Nc2cc3oc4ccccc4c3cc2OC)cc1	8.11%
c1csc(-c2cnc3ccccc3n2)c1	7.39%
CCN(CC)CC(=O)Nc1c2c(nc3ccccc13)N(C)CC2.O=C(O)C(=O)O	11.7%
CCc1noc(C)c1C(=O)NC1CCCc2c1cnn2-c1ccc(C(C)(C)C)cc1 (stereo not drawn)	12.6%
Cc1n[nH]c(C)c1S(=O)(=O)N1CCC(C(=O)N2CCn3c2nc2ccccc23)CC1	6.09%
O=C(Nc1nc(-c2ccc(-c3ccccc3)cc2)cs1)C1=COCCO1	8.8%
Cc1ccc(-c2nc(Nc3cccc(O)c3)c3ccccc3n2)cc1	9.92%
CC(C)C(CCNC1CCN(C)CC1)c1ccc(Cl)cc1 (stereo not drawn)	4.43%
COC(=O)c1cn(NC(=O)c2ccc(F)cc2)c(=O)c2ccccc12	19.2%
C[N+](C)(C)CCOC(=O)CBr.[Br-]	12.2%
COc1ccc(CN2CCNC(=O)C2CC(=O)NCc2csc(C(C)C)n2)c(OC)c1 (stereo not drawn)	2.91%
O=C(OCC(=O)N1CCCCCC1)c1ccc(Cl)c(S(=O)(=O)N2CCCC2)c1	3.94%
COc1ccc(CN(CCN)C2CC(C)N(C)CC2C)cc1.Cl (stereo not drawn)	4.93%
Cc1[nH]c2ccccc2c1C(=O)COC(=O)C1CCC1	-4.21%
COc1ccc(OC)c(Nc2cc(C(=O)NCCCN3CCOCC3)c3ccccc3n2)c1	6.03%
Cc1ccc2cccc(S(=O)(=O)N3CCN(c4ccccc4F)CC3)c2n1	5.56%
O=C(NC1CCCCC1)NC1CCN(C(=S)NCc2ccco2)CC1	-0.608%
CC(=O)Nc1oc(-c2cccc3ccccc23)nc1C#N	7.54%
